Where “and” joins values, the source holds several entries; their conditions need not be identical. Equal values may be shown once.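 Tested at 5 concentrations; 48 h exposure; 96-well plates; endpoints linearly interpolated, else capped at highest concentration. Here, GI50 denotes the concentration required for 50% inhibition of growth. TGI: total growth inhibition.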 Calls of active or inactive are those of the source. No stated cut-off is given here; in the data, active means GI50 below about 0.43 µM; inactive means the rest. Square brackets hold non-standard residues; d marks the D form. Peptide text beside a SMILES is read from it. * marks the point of attachment. ξ: configuration not given here. NMeF = CN[C@@H](Cc1ccccc1)C(=O)O; NMeN = CN[C@@H](CC(N)=O)C(=O)O; NMeV = CN[C@H](C(=O)O)C(C)C; ξNMeV = CNC(C(=O)O)C(C)C; Boc = CC(C)(C)OC(=O)*; ξNMeA = CNC(C)C(=O)O; ξV = CC(C)C(N)C(=O)O
Tested on: NCI-H322M lung
Test: DTP human tumour cell line panel, 48 h

Compound | TGI | GI50 | outcome
CCc1cccc(C)c1NC(=O)CCc1nnc(SC)o1 | > 100 µM | – | –
C/C(=N\NC(=O)c1ccccc1N)c1ccccc1O | > 100 µM | 2.35 µM | –
CC1C=CC(O)[C@]2(CO)CC3(CCC12)OCCO3 (stereo partly specified) | > 100 µM | – | –
CO[C@H]1C[C@@H]2CC[C@@H](C)[C@@](O)(O2)C(=O)C(=O)N2CCCC[C@H]2C(=O)O[C@H]([C@H](C)C[C@@H]2CC[C@@H](O)[C@H](OC)C2)CC(=O)[C@H](C)C=C(C)[C@@H](O)[C@@H](OC)C(=O)[C@H](C)C[C@H](C)/C=C/C=C/C=C1C | 24.2 µM and 28.4 µM and 225 µM | – | –
Nc1nc2c(ncn2C2C=CC(COS(N)(=O)=O)C2)c(=O)[nH]1 (stereo unspecified) | > 100 µM | – | –
Cc1cccc(-c2cc(=O)c3cc(C)c(C)c(C(=O)O)c3o2)c1 | > 100 µM | – | –
COc1cc(Nc2cnc3ccc(N)cc3n2)cc(OC)c1OC | > 100 µM | – | –
COC(=O)C(C)N(C)C(=O)[C@H](CC(N)=O)N(C)C(=O)[C@@H]1CCCN1C(=O)[C@H](C(C)C)N(C)C(=O)C(C(C)C)N(C)C(=O)[C@H](Cc1ccccc1)N(C)C(=O)C(NC(=O)OC(C)(C)C)C(C)C (stereo partly specified) (Boc-[ξV][NMeF][ξNMeV][NMeV]P[NMeN][ξNMeA]-OMe) | 50 µM and 31.2 µM | 17.5 µM | –
CNCCC/C=C1\c2cc3c(cc2-c2c1c1cc(OC)c(OC)cc1c(=O)n2C)OCO3 | 18.9 µM | 2.69 µM | –
C=Cc1ccccc1C1C(C(=O)OCC)=C(C)N=C2OC(C(=O)OC)C(=O)N21 (stereo unspecified) | > 100 µM | – | –
Cc1oc2nc[nH]c(=O)c2c1C(=O)/C=C/c1ccc(Br)cc1 | 12 µM | 2.39 µM | –
C[C@@]1(O)C2C3CC4C5C3C1[C@](O)(C42)[C@H]5Br (stereo partly specified) | > 100 µM | – | –
CC(=O)O[C@H](C[C@@H](C)[C@H]1C(=O)[C@H](O)[C@@]2(C)C3CC[C@H]4C(C)(C)[C@@H](OC5OCC(O)C(O)C5O)CC[C@@]45C[C@@]35CC[C@]12C)[C@@H]1OC1(C)C (stereo partly specified) | 47.8 µM | – | –
COc1nc2ncc([C@@H](O)[C@H](O)CO)nc2c(=O)n1C | > 100 µM | – | –
Nc1ccc(C(=O)N/C(=C\c2cccc([N+](=O)[O-])c2)c2nc3ccccc3[nH]2)cc1 | > 100 µM | – | –
C=C1C(=O)O[C@@H]2C1C(OC(C)CCC)[C@@H](O)[C@@H](C)C(O)C1O[C@]1(C)[C@H]2O (stereo partly specified) | – | – | inactive
COc1ccc2cc(C(=O)NCCCNC(=O)c3ccc4c(OC)c(OC)ccc4c3)ccc2c1OC | > 100 µM | – | –
CC(=O)OC(OC(C)=O)c1ncccc1C(=O)OC(C)C | > 100 µM | – | –
c1ccc(-c2cn3nc(N4CCOCC4)sc3n2)cc1 | > 100 µM | – | –
CCCCC(=O)Nc1ccc2cc(C(=O)OC)c(Cl)nc2n1 | 18 µM | – | –
CCCCc1ccc(N2C(=O)c3cc([N+](=O)[O-])cnc3S2(=O)=O)cc1 | > 100 µM | – | –
CC(=O)O[C@H]1C(=O)[C@@]2(C)[C@H]([C@H](OC(=O)C3CCCCC3)[C@]3(O)C[C@H](OC(=O)[C@H](O)[C@@H](NC(=O)OC(C)(C)C)c4ccccc4)C(C)=C1C3(C)C)[C@]1(OC(C)=O)CO[C@@H]1C[C@@H]2O | > 12.5 µM | – | –
COC(=O)[C@]1(C)CCC[C@]2(C)[C@H]3CC[C@]4(C(C)C)OO[C@@H](O4)[C@]34O[C@@H]4C[C@H]21 | > 53 µM | – | –
N=C(N)c1ccc(-c2ccc(-c3ccc(F)cc3)s2)nc1 | 3.1 µM | 1.64 µM | –

Compound | TGI | GI50 | outcome
C#CCN(Cc1ccc2nc(-c3ccccc3)c(Cl)nc2c1)c1cc(OC)c(OC)c(OC)c1 | > 100 µM | – | –
COc1ccc(N2CCOCC2)cc1 | > 100 µM | – | –
O=C(Cc1ccc(OCc2ccccc2)cc1)NCc1ccc2c(c1)OCO2 | > 100 µM | > 100 µM | –
O=C1C=C2C(=CCOC2O)O1 (stereo unspecified) | 15.1 µM and 38.2 µM | 5.9 µM and 17.4 µM | –
CCC1(CN(C)C)CC/C(=C\c2ccc(OC)cc2)C1=O (stereo unspecified) | > 100 µM | – | –
O=C(O)C1(Cc2ccccc2)Cc2ccccc2C1 | > 100 µM | – | –
CNC[C@@H](NC(=O)c1ccc(-c2nc([C@H]3CC[C@H](O)[C@@H](F)C3)cnc2N)cc1F)c1cc(F)cc(Br)c1 | 39.4 µM | 17.8 µM | –
COC(=O)CCC(C)[C@H]1CCC2C3C(C[C@H](OC(C)=O)[C@@]21C)[C@@]1(C)CCC2(C[C@H]1C[C@H]3OC(C)=O)OOC1(CCC(C(C)(C)C)CC1)OO2 (stereo partly specified) | > 100 µM | – | –
Cc1ccccc1N1C(N)=C(C#N)C(C#N)(C#N)C1c1ccccc1 (stereo unspecified) | 36.6 µM | – | –
O=C(O)c1ccccc1/C=C1\Cc2ccccc2C1=O | > 100 µM | – | –
[O-][n+]1c2cc3c(cc2[n+]([O-])c2c(O)cccc21)CN(CCN1CCOCC1)C3 | > 100 µM | – | –
O=C1OC(CC(=O)c2ccc(Cl)cc2)C(Cl)=C1Cl (stereo unspecified) | > 100 µM | – | –
S=c1nc(COc2ccc(Cl)cc2)[nH][nH]1 | > 100 µM | – | –
CN(CCCN(C)Cc1ccc(Cl)c(Cl)c1)CCN1CCCC1 | 44 µM | – | –
COc1ccc(O)c2c(=O)ccccc12 | > 100 µM | – | –
CC(C)CC(=O)[O-].CC(C)CC(=O)[O-].N.N.N.N.[Co+3].[O-][Cl+3]([O-])([O-])O.[O-][Cl+3]([O-])([O-])[O-] | > 100 µM | > 100 µM | –
CCN(CC)c1c(C)c(C(=O)OC)nn1-c1ccccc1 | > 100 µM | – | –
NC(N)=NS(=O)(=O)c1ccc(NC(=O)c2cccc3cc4ccccc4nc23)cc1 | > 100 µM | – | –
Cc1cc(C)c(-n2c(-c3ccccc3)cs/c2=N\N=C2C=C(C(C)(C)C)C(=O)C(C(C)(C)C)=C2)c(C)c1 | > 100 µM | – | –
NC(N)=NS(=O)(=O)c1ccc(NC(=O)c2cccc3c(Nc4ccc(S(=O)(=O)N=C(N)N)cc4)c4ccccc4nc23)cc1 | > 100 µM | – | –
COc1ccc(-n2cnc3c(NCC(=O)O)ncnc32)cc1 | > 100 µM | – | –
O=c1ccc2[n+]([O-])c3ccc(O)cc3oc-2c1 | > 70.7 µM | – | –
CC(=O)c1cccc(NC(=O)C(=O)C(C(=O)NN)c2ccccc2)c1 (stereo unspecified) | > 100 µM | – | –

Source: PubChem BioAssay (NCI)
